Measured values: the supplement of paper PMC10126150
Values marked as one replicate rest on one cluster of the flow cell; about a third of the high ones do not repeat.

System: ATP
Test: switch fluorescence ratio, 500 uM ATP over buffer (Cy3 cluster intensity, sum of 5 cycles each) (fold (ratio)); higher = stronger signal-on switching upon ATP binding; sequences stand for … in TCGTCGGCAGCGTCAGATGTGTATAAGAGACAGTTTTTTTTTTTTTTTTTTTTTTTTT…TC
Conditions: aptamer strand: ATP DNA aptamer (quencher-CACCTGGGGGAGTATTGCGGAGGAAGG + anchor), 100 nM annealed; ATP concentration: 500 uM; one replicate
In short: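 Five buffer/ATP imaging cycles were run on Cy3-labelled switching-strand clusters on a modified Illumina MiSeq flow-cell, with NaOH stripping and re-annealing between cycles. In each cycle, clusters annealed to 100 nM quencher-labelled ATP aptamer were imaged in selection buffer, then after 15 min with 500 uM ATP at 22 °C. Per cluster, the fluorescence ratio is summed target-cycle over summed buffer-cycle Cy3 intensity, averaged per switch-domain sequence. Only clusters within 100-1000 RFU were kept.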
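Note: ATP exposure 15 min at 22 °C before imaging.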

Sequence	switch fluorescence ratio
GTTTACCAAT	0.951
CCCGCCTAAG	1.16
TGCGGGTCTG	0.986
CGGGTACTCT	0.989
CTACTGTCCG	0.98
GAATTACAAA	0.981
CCTTCCTGTT	1.51
CGGATGAAAA	0.961
CCTCTAAGG	1
TTTAGAAACC	1.34
TGTAAATGCT	0.983
GCCTGAGCAT	1.04
CCGTCTCAGG	1.33
CGGTGATGAA	0.998
GCACAAGGCA	1.04
CAAAGTTATC	0.971
AGGTATTCGG	1.01
GGCCTGGTTG	1.01
CGAACAGGGT	1.01
TTGTGTACGG	1.06
CAGGCGTCAT	1.04
GGTAGAGCCG	1
CTAGTACAAA	1.01
CGTAGGGATT	1.02
GGCATCTCA	1
AGTGCATCCG	1

Sequence	switch fluorescence ratio
TCGGCCCGCG	1.04
CGTCGGCGTT	1.01
TAGGCAATTC	2.68
TAGAAATGCT	1.03
ATCGCGTCAG	1.07
TAGTTGCAGG	1.06
TTGCACCAG	1.05
AGCGACGGGG	0.946
GATATCTGAG	1.03
CGATTACGGC	1.04
CACGTAGCGC	1.36
ATATGCGAGT	1.02
TGCGAGCGAT	1.08
CCGTTGGTTG	0.993
TTCTGGGTTG	0.981
CCGTATGAGA	1.02
TAGTCGTCGA	0.999
GTTGTTTCGG	0.981
AGTGCAATCC	2.2
GCTCTGACCC	1.04
GCCGGCTACA	0.999
AGTCAGCAGA	1.02
TTGCTTGG	1.02
GGTGCTACTC	1.24
CTGAGAGGAG	1.02
ATTCGACGAC	1.16

Sequence	switch fluorescence ratio
CGATGTTTGC	1.15
ACATGACCCG	1.12
AGACGCCTGT	1.07
CCTGGTGCTG	1.08
TGAGGGTATG	0.965
TTAGCCCTTT	1.02
CGCTCCTCTA	1.18
GTGTAAGGTG	1.19
ACTGGATCGG	1.02
TTCCTCAACT	1.11
AGAAAGATTG	0.973
CAGGCGTGTT	1.03
CCACCGTGCT	1.25
CGGATGACCT	1.04
AATTGCGCGG	1.02
AGGACCCGCT	1.09
CTTCTTTCGG	1.03
CTAGAAGCGT	0.978
GTAGTTGGAC	1.12
CATACAGTG	1.03
AGTGCTGCCT	1.04
TCCGTTGCAT	3.89
GATCTGTAGG	0.992
AGCTATTCTA	1.03
GTCATAAATC	0.977
GGCGTACAGA	1.02

Sequence	switch fluorescence ratio
GAAGTACCCG	1.11
ATACGCCTG	1.04
GGTTTTATAG	0.999
ACTGGGCACT	1.04
AAAGTAGGTG	0.975
TTGAAATCAT	0.984
TTCTCTCCTA	1.03
GCGTTACGTG	0.954
TCAGCTGGG	0.996
CGAGTCACGT	0.97
GGTCAGGTTT	1.02
GCATGGTCTA	1.03
TACACTGCTC	1.13
TCTTTCAAAG	1.01
ACGGTTCACG	0.999
TATGCCGCGT	0.973
AGGATAATGC	1.05
TCGGTAATGG	1.12
ACCTCGTAGC	1.48
GATGAGTGCA	1.01
CGAGTATTTG	0.983
TAATTCAGTG	0.961
AATCGAAGCC	0.967
CGGTCATTAC	2.3
TTACGATAGG	1.1
GCTAGTGACT	0.985

Sequence	switch fluorescence ratio
ATAGGTATGG	0.944
AATGGCAGAG	0.981
TGGCAAAGCC	1.01
TCGAAATGCG	0.994
TACTTCTGCT	1.03
GAACGGCCAA	1.05
TACATTGCAT	1.01
CAAATACAGT	0.996
AAAGGGGTTC	0.933
TACAACTAGT	1.02
TTATGGAAAA	0.984
TCGAGTATAG	0.963
CGTTGCATGG	1.06
CACGACATAG	1
AAACGGAGAG	1.01
TGCGCAGCTG	1.02
GGTAAACCCT	1.14
AACATGAACA	0.99
TTATCAATG	1
ATTTCTGCAA	2.88
ATCATAGCTG	0.947
TATCGCTTCC	2.22
TGAAAGTGAT	1.05
GACGTACAGA	1.67
AATAATGCAG	1.03
GTATGGTTTT	1

Sequence	switch fluorescence ratio
ACCGCGGGTC	1.06
ACGTGAATAA	1.11
TTTAACTGTT	1.02
TATCTGCATG	1.94
CCGATCAAGG	1.29
TCGATCAAAA	1.03
AGCATGATGT	1.03
GAGTGAGAAC	0.975
CAAGACTTTT	0.989
GGCAGCTATA	1.19
AAAAGTGTGC	1.12
GTAATGAGCT	0.986
GACGTCCTCT	1.01
TCTCGGAGCG	1.09
TTTAGTCGAC	1.01
AGGTCATGCA	1
ATGAAAAGTA	1
AATGGCGATA	1.02
CTTAGAACGG	0.996
GTAGGTCGGC	1.09
GAGGTGTCTT	0.984
AGCACGTCTC	1.05
GGGCTGCTCC	2.71
